We go through 22 molecules from PMC12136788.

The list shows a part of the results.

To fix the notation:
B1: chr7:101138466:101138856:+|3pUTR|ENSG00000106366|msi1|total|mutant (ssRNA)
RNA: GGGAGUUCUACAGUCCGACGAUCGAGUGGGGGGACAGAGACUCAGAUGAGGACAGAGUGGUUUCCAAUGUGUUCAACCGAUUCCGGAGCAGAAAUGCAAGGGGCUGCAUGACCUACCAGGACAGAACUUUCCCCAAUUACAGGCAACAGAGGAUUGAGCAUCA
B2: chr14:100884374:100884478:-|CDS|ENSG00000254656|unk|total|mutant (ssRNA)
RNA: GGGAGUUCUACAGUCCGACGAUCGAGGAGUCAUGCAACGGUUCACACCAGGCAAGGGGGGAUCCACUCAGUGGAGCAUCUGACCGGAUGAAAGAAGCAUCAGUCAACCCAUCGGGAGCCCGAGAAGAACAAGAGGCUCACACUCAACAGAGGAUUGAGCAUCA
B3: chr20:38750096:38750197:+|CDS|ENSG00000101442|unk|total|mutant (ssRNA)
RNA: GGGAGUUCUACAGUCCGACGAUCGCAAAUGAUGUCUGAGCUUCUUUUUGAGUGCUACGGGAUUCCCAAGGUUGCCUAUGGAACCGACAGCCUCUUCAGCUUCUACCACAAUAAGCCAAAGAACUCGAUGUGCAGUGGGCUAAUCAACAGAGGAUUGAGCAUCA
B4: chr10:128098466:128098636:-|3pUTR|ENSG00000148773|msi1|FALSE|unique (ssRNA)
RNA: GGGAGUUCUACAGUCCGACGAUCUCCUUUCCUUUCUGAAAAUAAAGUUUUGUGCUUUGGAGAAUGACUCGUGAGCACAUCUUUAGGGACCAAGAGUGACUUUCUGUAAGGAGUGACUCGUGGCUUGCCUUGGUCUCUUGGGAACAACAGAGGAUUGAGCAUCA
B5: chr10:25598329:25598431:+|CDS|ENSG00000151025|unk|total|mutant (ssRNA)
RNA: GGGAGUUCUACAGUCCGACGAUCAUCGAUGUUACAGAAGUCUCUCAGUGUCACCGCAAGCGCCAAGGAGAAGACUCUUGGAUCCGCUGGGAAAACCCAAACAGCAGGUGUGGAAGAACGCACUAAAUCCCAGAAACCUUUGCCCAACAGAGGAUUGAGCAUCA
B6: chr12:6347307:6347408:-|3pUTR|ENSG00000111319|msi1|total|mutant (ssRNA)
RNA: GGGAGUUCUACAGUCCGACGAUCGUCUGCUCCUCCUCUUGAACUUGGGUGGGAAACCCCACCCAAAAGCCCCCUUUGUUACUCCGGCAAUUCCCCUUCCCUGACUCCCGAGGGCCCGGGCCCGAGCAGACCCGGGUAAGUAAACAACAGAGGAUUGAGCAUCA
B7: chr14:96489241:96489342:+|3pUTR|ENSG00000140057|unk|FALSE|unique (ssRNA)
RNA: GGGAGUUCUACAGUCCGACGAUCUAAAGUGUAUAAUUCAGUGGCACUAAGUUCAUUCACAAUGAUCUGCAGCCACCACUAUCUAGUCCAGAACUUUCUCAUCACCCCAAAUGGAAACCCAGCACCUAUUAGGCAGUCACGCUCCAACAGAGGAUUGAGCAUCA
B8: chr1:9614578:9614679:+|3pUTR|ENSG00000188807|msi1|total|mutant (ssRNA)
RNA: GGGAGUUCUACAGUCCGACGAUCUCCAGCUGCCAGCAAUGGUUCCAACUCGGAGGCAGCGCCUCUUGGUCCCCAUUUCUGUACCGCAGGCGUGUGUGUGUGUGUCGAGGUUUUUUAUUUUUUGCUUAAUCAAACUCCAUUCCCCAACAGAGGAUUGAGCAUCA
B9: chr9:88129304:88129631:-|three_prime_utr|ENSG00000177910|control|control|control (ssRNA)
RNA: GGGAGUUCUACAGUCCGACGAUCGACCAAGGCACUGUCUUUUUCAGGGAGGUAUCUAAUUUGGUCAGUCACAAAUUCCUUUUUAGCCUUCCCUAGAGAAAAACAAGUCACCAAGAAAAAAUUCACUCUAUGUAGAGGAAAAGUCAACAGAGGAUUGAGCAUCA
B10: chr12:50748518:50748596:+|3pUTR|ENSG00000066084|msi1_unk|total|mutant (ssRNA)
RNA: GGGAGUUCUACAGUCCGACGAUCUCAAAUUCAAACUACAGUACUGUGUAAUUAUGUAUAAAGUUUUUUUAUUUAUUUGAAGUCCGACCCGAUAUACGUUUUUAAAUUUAACAUCUGGCUGGACAGUGUUCUAUUAACUCAUUGCAACAGAGGAUUGAGCAUCA
B11: chr12:109450965:109451066:-|3pUTR|ENSG00000110906|msi1|FALSE|unique (ssRNA)
RNA: GGGAGUUCUACAGUCCGACGAUCGCCCGGGCACAAUCCCCACUGCUUUGCUAGACGUGCUUUCUGCCAUGUGGCUUUGGGCCUAGAGCUUGUUGAUAAUUGCAGCUUGUGGCAGUGGAAAUAUGGCUGAAUGAGCGUCUAAAUCAACAGAGGAUUGAGCAUCA
B12: chr2:32415736:32415837:+|CDS|ENSG00000115760|unk|FALSE|unique (ssRNA)
RNA: GGGAGUUCUACAGUCCGACGAUCGCAGAGGAAUGUUAGUGGUGGAUAUUUAGUGCUUUAUAAAAUGAAUUAUGCCACUCGGAUAGUGACUUUAGAAGAGGAGCCAAUAAAAAUACAACAUAUCAAAGAUCCCCAGGACACAAUCAACAGAGGAUUGAGCAUCA
B13: ENSG00000182118:stop:overlap|stop_codon|ENSG00000182118|stop_codon|NA|stop_codon (ssRNA)
RNA: GGGAGUUCUACAGUCCGACGAUCGGGACUUGUCACUGCCUGUCUCCUCCCUCUCCAGCAGCGACUGGAUUCUGGAGUCCAUCUAGAGGGUCUUGGGAGGGAUGUGACUGUUGGGAAGCCCUUCCUACUGGACACGCUGUCAUCCAACAGAGGAUUGAGCAUCA
B14: chr5:37007335:37007444:+|CDS|ENSG00000164190|unk|total|mutant (ssRNA)
RNA: GGGAGUUCUACAGUCCGACGAUCAGGCUUAUUAAGUUCAAAAGCAAAACGGGCUAAAUGUUCUACCCAUAAGCAGAGAGUAACCGUAAUGCUUUAUAACAAAGUUUGUGACAUUGUCCGCAGCUUAUCAGAAUUGCCCGAGAUCAACAGAGGAUUGAGCAUCA
B15: ENSG00000198589:be:win_9451|3pUTR|ENSG00000198589|bound_else_gene|NA|bound_elsewhere_windowed (ssRNA)
RNA: GGGAGUUCUACAGUCCGACGAUCUUAAACUAUCAUCUCCACCUUCCUUUUGAUUAGCAAUUUGUACUAAGAAACGAAACAAUGUUAUUUGGUGGUGUAUAAUUCUACUUUUCUAGUAGAUUACUGUGUGGAAUUCUGUGAAAACAACAGAGGAUUGAGCAUCA
B16: chr22:35606763:35607296:-|three_prime_utr|ENSG00000198125|control|control|control (ssRNA)
RNA: GGGAGUUCUACAGUCCGACGAUCGCUCCCACCCCCACCCAUCUGGGCCCCGGGUUCAAGAGAGAGCGGGGUCUGAUCUCGUGUAGCCAUAUAGAGUUUGCUUCUGAGUGUCUGCUUUGUUUAGUAGAGGUGGGCAGGAGGAGCCAACAGAGGAUUGAGCAUCA
B17: ENSG00000107863:be:win_701|CDS|ENSG00000107863|bound_else_gene|NA|bound_elsewhere_windowed (ssRNA)
RNA: GGGAGUUCUACAGUCCGACGAUCCACCAGUACUGACACAACCUGGUAGGGCCUAUAGAAUGGAAAUACAAGUGCCUCCAUCACCAACAGAUGUUGCAAAAUCAAACACAGCAGUGUGUGUUUGCAAUGAAAGUGUAAGGACUGCAACAGAGGAUUGAGCAUCA
B18: ENSG00000198589:be:win_5001|CDS|ENSG00000198589|bound_else_gene|NA|bound_elsewhere_windowed (ssRNA)
RNA: GGGAGUUCUACAGUCCGACGAUCACCGUCAGUUUCAGUUUCAAAAAACGUCAAUGUGAAAGACAUUCUCCGAAGCUUGGUUAACAUACCAGCAGAUGGAGUCACAGUGGAUCCUGCCCUUCUGCCACCAGCCUGCCUUGGAGCCAACAGAGGAUUGAGCAUCA
B19: chr1:235113809:235113910:-|CDS|ENSG00000173726|msi1_unk|FALSE|overlapping (ssRNA)
RNA: GGGAGUUCUACAGUCCGACGAUCAGGCUUUUCAGGUUACAUGUAAUUUUAUGUAAAUCUUACAGGUGAAUAUGAGAAGGGCGUAGACCAUCUGACAAAUGCAAUUGCUGUGUGUGGACAGCCACAGCAGUUACUGCAGGUCUUCAACAGAGGAUUGAGCAUCA
B20: chr7:40094668:40094770:+|CDS|ENSG00000065883|unk|total|mutant (ssRNA)
RNA: GGGAGUUCUACAGUCCGACGAUCGGAUAUGGAGACAUUUACCUCAAUGCUGGUCCCAUGUUGUUCCGUGGAGACAAGGACCACCGAUUUGAAUACCGCCAUGGUCCUAUUGCAGUCCUGGCAAACAGCAGUGACCCUUCCACGCAACAGAGGAUUGAGCAUCA
B21: chr10:50305585:50307321:-|three_prime_utr|ENSG00000198964|control|control|control (ssRNA)
RNA: GGGAGUUCUACAGUCCGACGAUCUGAAAAGAAUGUCCAAGGAAUUGUACCUCGAUCUUACCAUUGGCCUUUCCCCUGGCCAGUAGUCCACCUCAGUAGGCAAGUUAAAUACAGCCGGCUGGUGAAUGACACAUAACAGCUGUACAACAGAGGAUUGAGCAUCA
B22: chr2:30158716:30158817:+|CDS|ENSG00000119801|msi1|FALSE|bound_elsewhere (ssRNA)
RNA: GGGAGUUCUACAGUCCGACGAUCGUUUGCCACUGAAGACAGCCAGCGAUAUAAGGAAGGCCGCGUGAUCCUGGAACGUGCUCUAGUUCGAGAGAGUGAGGGCUUUGAGGAGCAUGUACCAUCUGAUAACUCUUGAAGAUACAGCAACAGAGGAUUGAGCAUCA

This assay deals with T1, UNK ZnF1-6 (called full-length) (human, UniProt Q9C0B0 30-357).
T1 sequence: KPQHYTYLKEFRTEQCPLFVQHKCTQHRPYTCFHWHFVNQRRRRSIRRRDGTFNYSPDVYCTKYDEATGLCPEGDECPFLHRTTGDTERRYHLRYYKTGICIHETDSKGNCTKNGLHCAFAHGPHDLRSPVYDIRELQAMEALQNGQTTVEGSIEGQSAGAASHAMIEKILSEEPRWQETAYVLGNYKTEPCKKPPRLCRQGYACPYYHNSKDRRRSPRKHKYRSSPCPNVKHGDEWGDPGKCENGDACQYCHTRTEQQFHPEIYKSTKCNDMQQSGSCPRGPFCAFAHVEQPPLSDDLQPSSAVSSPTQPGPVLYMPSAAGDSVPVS
In words: nsRBNS (natural sequence RNA bind-n-seq); RBNS binding buffer (assumed for nsRBNS): 25 mM Tris pH 7.5, 150 mM KCl, 3 mM MgCl2, 0.01% Triton X-100, 500 ug/ml BSA, 20 U/ml SUPERase-In, 4 C; UNK is unkempt and MSI1 is Musashi-1; names of the RNAs are library labels; protein concentration not given here; high values mean tight binding.
Regarding B1, the binding signal came to 0.923 enrichment R.
As for B2, the figure is 0.84 enrichment R; as for B3, 0.458 enrichment R; as for B4, 0.498 enrichment R.
On to B5, for which the binding signal was found to be 0.604 enrichment R.
Molecule B6 had a binding signal of 0.879 enrichment R.
With B7, the binding signal turned out to be 0.624 enrichment R.
As for B8, the figure is 0.834 enrichment R; as for B9, 0.241 enrichment R.
For the molecule B10, the binding signal came out at 1.16 enrichment R.
In turn, B11 had a binding signal of 0.65 enrichment R.
For the molecule B12, the binding signal turned out to be 1.35 enrichment R.
The molecule B13 came in with a binding signal of 0.628 enrichment R.
In turn, B14 returned a binding signal of 0.177 enrichment R.
With B15 the figure was 0.643 enrichment R; with B16, 0.806 enrichment R.
In turn, B17 registered a binding signal of 0.78 enrichment R.
In turn, B18 showed a binding signal of 0.467 enrichment R.
With B19 the figure was 0.397 enrichment R.
Molecule B20 had a binding signal of 0.502 enrichment R.
Molecule B21 came in with a binding signal of 0.47 enrichment R.
Molecule B22 returned a binding signal of 0.666 enrichment R.
